Test results: the antibiotic and cytotoxicity screens of Wong et al. (2023)
The other results are listed elsewhere or left out.

Assays:
[1] = tested on: HSkMC (human skeletal muscle cells); assay: cytotoxicity call (relative viability < 0.9); conditions: 10 µM
[2] = tested on: HepG2; assay: cytotoxicity call (relative viability < 0.9); conditions: 10 µM
[3] = tested on: S. aureus RN4220; assay: growth inhibition call (relative growth <= 0.2); conditions: 50 µM

Row | Structure (SMILES) | cytotoxicity call [1] | cytotoxicity call [2] | growth inhibition call [3]
1 | Cc1ccc(S[C@]2(C(=O)NCCCN(C)C)CC(=O)N(Cc3ccccc3C(F)(F)F)[C@@H]2c2ccc(CO)cc2)cc1 | inactive | inactive | inactive
2 | CN1C(=O)c2cc(NC(=O)Cc3cccs3)ccc2OC[C@H]2O[C@@H](CC(=O)NCCc3ccncc3)CC[C@@H]21 | inactive | inactive | inactive
3 | C[C@H](CO)N1C[C@H](C)[C@H](CN(C)Cc2ccccc2C(F)(F)F)OCc2ccccc2-c2ccccc2C1=O | active | inactive | inactive
4 | COc1cc(S(C)(=O)=O)ccc1Nc1nc2ccc(-c3ccc(NC(=O)[C@H](C)c4ccc(F)cc4)cc3)cn2n1 | inactive | inactive | inactive
5 | C[C@H](CO)N1C[C@H](C)[C@H](CN(C)Cc2ccccc2)OCc2ccccc2-c2c(n(C)c3ccccc23)C1=O | inactive | inactive | inactive
6 | C[C@@H]1CN([C@@H](C)CO)C(=O)c2cc(NC(=O)CCN3CCOCC3)ccc2O[C@H]1CN(C)S(=O)(=O)c1cn(C)cn1 | inactive | inactive | inactive
7 | COc1ccc(S(=O)(=O)N(C)C[C@@H]2Oc3ncc(C#Cc4ccccc4)cc3C(=O)N([C@H](C)CO)C[C@@H]2C)cc1 | inactive | inactive | inactive
8 | C[C@H](CO)N1C[C@H](C)[C@@H](CN(C)Cc2ccc(C(F)(F)F)cc2)Oc2c(NS(C)(=O)=O)cccc2C1=O | inactive | inactive | inactive
9 | COCC(=O)Nc1ccc2c(c1)C(=O)N(C)C[C@H](OC)[C@@H](C)CN(C(=O)Cc1ccccn1)[C@@H](C)CO2 | inactive | inactive | inactive
